This is one part of the list.
These compounds were tested on S. aureus RN4220 (assay: growth inhibition call (relative growth <= 0.2)). Conditions: 50 µM.

Growth inhibition call, inactive:
CN(C)C(=O)C[C@H]1CC[C@H]2[C@H](COc3ccc(NS(=O)(=O)c4cccc(F)c4)cc3C(=O)N2C)O1
C[C@@H]1CCCCO[C@@H](CN(C)Cc2ccc(C(F)(F)F)cc2)[C@@H](C)CN([C@H](C)CO)C(=O)c2cc(NC(=O)Nc3ccc(C(F)(F)F)cc3)ccc2O1
Cc1noc(C)c1NC(=O)N(C)C[C@@H]1Oc2c(NS(=O)(=O)c3ccccc3)cccc2C(=O)N([C@@H](C)CO)C[C@@H]1C
Cc1ccc(-c2ccc3c(c2)O[C@H](CN(C)Cc2cncnc2)[C@H](C)CN([C@H](C)CO)S3(=O)=O)cc1
NS(=O)(=O)c1cc(-c2nn[nH]n2)c(NCc2cccs2)cc1Cl
C[C@@H]1CCCCO[C@H](CN(C)C(=O)c2ccncc2)[C@@H](C)CN([C@H](C)CO)C(=O)c2cc(NC(=O)CCCCCC(=O)Nc3ccccc3N)ccc2O1
C[C@@H]1CCCCO[C@H](CN(C)Cc2ccc(C(F)(F)F)cc2)[C@@H](C)CN([C@H](C)CO)C(=O)c2cc(NC(=O)CCCN(C)C)ccc2O1
CC(C)=CC[C@H]1O[C@]2(O)[C@@H]([C@H]3CC[C@@H]4[C@@]5(C)CC[C@H](O[C@@H]6O[C@H](CO[C@@H]7O[C@@H](C)[C@H](O)[C@@H](O)[C@H]7O)[C@@H](O)[C@H](O)[C@@H]6O)C(C)(C)[C@@H]5CC[C@@]4(C)[C@]3(C)[C@H]2O)[C@@]1(C)O[C@@H]1O[C@@H](C)[C@H](O)[C@@H](O)[C@H]1O
COCC(=O)N(C)C[C@H]1Oc2cc(C#CC(C)(C)O)ccc2S(=O)(=O)N([C@H](C)CO)C[C@@H]1C
O=C(C[C@@H]1CC[C@@H]2[C@H](COC[C@@H](O)CN2S(=O)(=O)c2ccccc2)O1)N[C@H]1CCN(Cc2ccccc2)C1
O=C(C[C@H]1CC[C@@H]2[C@H](COC[C@H](O)CN2C(=O)Nc2cccc(Cl)c2)O1)NCCCN1CCOCC1
Cc1ccc(S(=O)(=O)Nc2ccc3c(c2)C(=O)N([C@@H](C)CO)C[C@H](C)[C@@H](CN(C)Cc2ccc(C(F)(F)F)cc2)OCCCC[C@H](C)O3)cc1
Cc1noc(C)c1S(=O)(=O)N(C)C[C@@H]1OCCCC[C@@H](C)Oc2ccc(N(C)C)cc2C(=O)N([C@H](C)CO)C[C@H]1C
C[C@H](CO)N1C[C@H](C)[C@H](CN(C)CC2CCOCC2)Oc2cc(-c3cccnc3)ccc2S1(=O)=O
CC(C)NC(=O)Nc1ccc2c(c1)C(=O)N([C@@H](C)CO)C[C@@H](C)[C@H](CN(C)C(=O)Nc1ccc(F)cc1)OCCCC[C@H](C)O2
COCC(=O)Nc1ccc2c(c1)OC[C@H](C)N(Cc1ccccc1F)C[C@@H](C)[C@H](OC)CN(C)C2=O
COc1ccc(S(=O)(=O)N(C)C[C@@H]2Oc3c(NC(=O)c4cnccn4)cccc3C(=O)N([C@H](C)CO)C[C@H]2C)cc1
COc1ccc(-c2cnc3c(c2)C(=O)N([C@H](C)CO)C[C@H](C)[C@H](CN(C)S(=O)(=O)c2ccc(F)cc2)O3)cc1
C[C@@H]1CN([C@@H](C)CO)C(=O)c2c(c3ccccc3n2C)-c2ccccc2CO[C@@H]1CN(C)C(=O)Nc1cccc(F)c1
COc1ccc(S(=O)(=O)N(C)C[C@@H]2Oc3ccc(NC(=O)Nc4c(C)noc4C)cc3C(=O)N([C@H](C)CO)C[C@H]2C)cc1
C[C@@H]1CCCCO[C@H](CN(C)Cc2ccccc2)[C@H](C)CN([C@@H](C)CO)C(=O)c2cc(NS(=O)(=O)c3ccccc3)ccc2O1
CC(C)NC(=O)Nc1ccc2c(c1)C(=O)N([C@@H](C)CO)C[C@@H](C)[C@H](CN(C)S(=O)(=O)c1cccs1)O2
[N-]=[N+]=Nc1ccccc1[C@H]1OC(c2ccc(OCCCO)cc2)=N[C@@]1(CCS(=O)(=O)c1ccccc1)C(=O)NCc1ccccc1
CCOc1cc2ncc(C#N)c(Nc3ccc(OCc4ccccn4)c(Cl)c3)c2cc1NC(=O)/C=C/[C@H]1CCCN1C
C[C@@H]1CN([C@@H](C)CO)C(=O)c2cc(NC(=O)Cc3ccccc3)ccc2O[C@@H](C)CCCCO[C@H]1CN(C)S(=O)(=O)c1ccc(Cl)cc1
C[C@@H]1CCCCO[C@@H](CN(C)C(=O)Nc2ccc(C(F)(F)F)cc2)[C@H](C)CN([C@@H](C)CO)C(=O)c2cc(NC(=O)Nc3ccccc3)ccc2O1
C[C@@H]1CN([C@H](C)CO)S(=O)(=O)c2ccc(C#CC3(O)CCCC3)cc2O[C@@H]1CN(C)C(=O)Nc1cccc(F)c1
OC[C@H]1O[C@@H](O[C@@H]2[C@@H](O)[C@H](O)[C@H](O[C@@H]3[C@@H](O)[C@H](O)[C@H](O)O[C@@H]3CO)O[C@@H]2CO)[C@@H](O)[C@@H](O)[C@@H]1O
C[C@H]1Cc2c(N)nn(C)c2NC1=O
COCCOC(=O)N1C(=O)[C@@]2(c3cc(C#Cc4ccc(OC)cc4)ccc31)[C@H](c1ccc(O)cc1)N1[C@H](c3ccccc3)[C@H](c3ccccc3)OC(=O)[C@H]1[C@@H]2C(=O)N1CCc2cc(OC)c(OC)cc2C1
O=C(C[C@@H]1CC[C@H]2[C@@H](COC[C@H](O)CN2C(=O)c2ccccc2F)O1)N1CCN(c2ccccc2)CC1
CC(C)NC(=O)Nc1ccc2c(c1)CC(=O)N([C@@H](C)CO)C[C@H](C)[C@@H](CN(C)Cc1ccc(-c3ccccc3)cc1)O2
C[C@@H]1CCCCO[C@H](CN(C)S(=O)(=O)c2ccc(Cl)cc2)[C@H](C)CN([C@@H](C)CO)C(=O)c2cc(NC(=O)c3ccccc3)ccc2O1
C[n+]1ccc(/C2=C3\C=CC(=N3)/C(c3cc[n+](C)cc3)=c3/cc/c4[n]3[Fe][n]3c2ccc3/C(c2cc[n+](C)cc2)=C2/C=CC(=N2)\C=4c2cc[n+](C)cc2)cc1
Cc1noc(C)c1S(=O)(=O)N(C)C[C@@H]1Oc2ccc(N(C)C)cc2CC(=O)N([C@@H](C)CO)C[C@@H]1C
CO[C@H](C(=O)N(C)C[C@H]1OCc2ccccc2-c2c(n(C)c3ccccc23)C(=O)N([C@H](C)CO)C[C@H]1C)c1ccccc1
COc1ccc(S(=O)(=O)N(C)C[C@H]2Oc3ccc(NC(=O)Nc4c(C)noc4C)cc3C(=O)N([C@H](C)CO)C[C@H]2C)cc1
O=C(C[C@H]1CC=CCC[C@@H](Cc2ccc(F)cc2)C(=O)OC[C@H](Cc2ccccc2)NC1=O)NCCO
C[C@H]1CCCCO[C@@H](CN(C)C(=O)c2ccccc2)[C@@H](C)CN([C@@H](C)CO)C(=O)c2cc(NS(=O)(=O)c3ccc(Cl)cc3)ccc2O1

Reference: the antibiotic and cytotoxicity screens of Wong et al. (2023)
